Experimental data taken from PubChem BioAssay AID1645882 (National Center for Advancing Translational Sciences (NCATS), 2021).
The campaign covered roughly 16,000 compounds. About 120 (0.75%) were called active. Another 4% or so got no clear call; they are omitted. Calls come from the whole dose curve; as a rule, active = well fitted inhibition curve with a large enough effect; inconclusive = small, poorly fitted or top-dose-only effect; inactive = no such curve, though single readings can be large or run the other way. Some of the results follow.

What follows are compounds tested against Rap guanine nucleotide exchange factor 3 (Homo sapiens) (UniProt O95398) (assay: Validation qHTS for antagonist of cAMP-regulated guanine nucleotide exchange factor 3 (EPAC1)). Conditions: EPAC1 Rap1B-BODIPY-GDP exchange, fluorescence; series mostly up to 150 µM; activity change, negative = inhibition: at the top concentration.
UniProt O95398, sequence (O95398 whole entry, looked up): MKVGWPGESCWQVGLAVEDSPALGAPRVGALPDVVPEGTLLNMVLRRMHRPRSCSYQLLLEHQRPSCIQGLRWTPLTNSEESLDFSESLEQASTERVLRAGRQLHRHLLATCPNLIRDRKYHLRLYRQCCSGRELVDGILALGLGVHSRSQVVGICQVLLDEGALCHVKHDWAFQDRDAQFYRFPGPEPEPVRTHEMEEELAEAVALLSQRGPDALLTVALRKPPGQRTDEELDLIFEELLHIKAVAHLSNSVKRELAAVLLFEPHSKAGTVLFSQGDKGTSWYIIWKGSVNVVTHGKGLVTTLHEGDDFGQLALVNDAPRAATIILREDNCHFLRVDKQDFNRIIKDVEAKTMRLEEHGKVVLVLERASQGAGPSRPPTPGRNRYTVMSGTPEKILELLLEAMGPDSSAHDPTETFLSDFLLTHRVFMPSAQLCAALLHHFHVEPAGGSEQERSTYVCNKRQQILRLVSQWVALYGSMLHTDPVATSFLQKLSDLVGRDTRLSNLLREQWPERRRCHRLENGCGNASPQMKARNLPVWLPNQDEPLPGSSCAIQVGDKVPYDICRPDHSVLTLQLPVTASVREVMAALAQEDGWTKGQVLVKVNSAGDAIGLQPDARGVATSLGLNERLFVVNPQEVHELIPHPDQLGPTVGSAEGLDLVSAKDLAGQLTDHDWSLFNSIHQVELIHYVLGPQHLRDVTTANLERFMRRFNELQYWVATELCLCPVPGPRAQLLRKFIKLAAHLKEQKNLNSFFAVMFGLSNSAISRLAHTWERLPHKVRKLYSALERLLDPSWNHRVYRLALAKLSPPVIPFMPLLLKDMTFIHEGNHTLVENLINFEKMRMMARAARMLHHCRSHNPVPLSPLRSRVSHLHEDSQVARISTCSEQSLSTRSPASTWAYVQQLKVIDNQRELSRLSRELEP
Description: Assay Provider (PI): Xiaodong Cheng Ph.D.
The University of Texas Medical Branch, […], TX
In multi-cellular eukaryotic organisms, the effects of cAMP are transduced by two ubiquitously-expressed intracellular cAMP receptors, the classic protein kinase A/cAMP-dependent protein kinase (PKA/cAPK) and the more recently discovered exchange protein directly activated by cAMP/cAMP-regulated guanine nucleotide exchange factor (EPAC/cAMP-GEF). Both PKA and EPAC are ubiquitously expressed in all tissues, and an increase in intracellular cAMP levels will lead to the activation of both PKA and EPAC. Therefore, careful dissections of the individual role and relative contribution of EPAC and PKA within the overall cAMP signaling in various model systems are critical for further elucidating the mechanism of cAMP signaling. To date no EPAC-specific antagonists and agonist, as well as isoform-specific agonists have been reported, and developing EPAC-specific pharmacological probes to determine the physiological functions that EPAC play in the overall cAMP-mediated signaling remains a major challenge within the research field. Furthermore, identified regulators of EPAC may lead to new mechanism-based therapeutic strategies specifically targeting the EPAC / cAMP-signaling components as EPAC has been implicated to play important roles in major human pathological conditions such as diabetes, heart disease, and cancer.
This qHTS will be used to screen the Molecular Libraries Small Molecule Repository (MLSMR) as a concentration-titration series using the NCGC unique quantitative screening (qHTS) platform to find activators for EPAC1. In addition, this assay will also be used as a counterscreen for the EPAC2 qHTS. This fluorescent based assay is developed and validated for EPAC1 that measures exchange using EPAC effector Rap1 complex with BODIPY-GDP, a GDP analog with a tethered fluorophores. Activators are identified by monitoring the change in fluorescence signal as the exchanged free BODIPY-GDP has a reduced fluorescence compared to Rap1-bound BODIPY-GDP. Increase in signal (activation) is the desired outcome for the EPAC1 agonist while no activity in this assay is desired for the EPAC2 agonist counterscreen.
[1] de Rooij, J., Zwartkruis, F. J., Verheijen, M. H., Cool, R. H., Nijman, S. M., Wittinghofer, A., and Bos, J.L. (1998) Nature 396, 474-477.
Briefly, three uL of reagents (100 nM EPAC1, 250 nM RAP1B-BODIPY-GDP, 50 uM GDP) were dispensed into a 1536-well Greiner black solid-bottom medium binding assay plate. Controls and test compounds (23 nL) were transferred to the plate via a Kalypsys pin tool equipped with a 1536-pin array. The plates were centrifuged at 1,000 rpm for 15 seconds followed by 5 minute incubation at room temperature. The assay plates were read at 5 minute intervals for 30 minutes in the ViewLux plate reader using 480nm excitation and 540nm emission filters. The results were normalized to the […] positive control ATA and DMSO.
Note: nearly all actives have a fitted effect of over 75% in size.

Activity change, negative = inhibition, inactive:
COc1ccc(CCN(C)CCc2ccc(OC)c(OC)c2)cc1OC
CC1(CN2CCC(n3c(=O)[nH]c4ccccc43)CC2)OCc2ccccc2-n2cccc21 (stereo not drawn) -4.28%
CC(CCc1ccc(O)cc1)N1CCOc2c(O)cc(-c3nc4ccccc4s3)cc2C1 (stereo not drawn) -5.36%
O=c1c(-c2ccccc2)nc2cnc(N3CCNCC3)nc2n1Cc1ccc(F)cc1 21.8%
Cc1cc(C)n(CC(=O)N2CCC(n3c(C(C)C)nc4cccnc43)CC2)n1 14.2%
COc1ccc(Oc2ncc3nc(-c4ccc(OC)cc4)c(=O)n(C)c3n2)cc1 7%
CC(C)[C@@H]1CC[C@@H](C)C[C@H]1O 18.8%
COc1ccccc1-c1ccnc(-n2ncc(C(=O)NCCc3cccnc3)c2C)n1 13.8%
CC(C)Oc1cccc(-n2c(CCc3c[nH]c4ccc(Br)cc34)nc3ccccc3c2=O)c1 -14.5%
Cc1cccc(-c2[nH]c(C(C)(C)C)nc2-c2ccc3nccnc3c2)n1 12.9% [at 75.8 µM]
COc1ccc(O)c(CN2CCC3(CCC(CNC(=O)c4ccccc4)O3)CC2)c1 (stereo not drawn) 2.54%
CC[C@@]1(O)C(=O)OCc2c1cc1n(c2=O)Cc2cc3cc(O)ccc3nc2-1
COCCn1c(=O)c(-c2cccs2)nc2cnc(Oc3ccccc3)nc21 0.488%
Cc1ccccc1/C=C/C1=NCCN1 5.55% [at 75.8 µM]
CCCCCCC(=O)O[C@H]1CC[C@H]2[C@@H]3CCc4cc(O)ccc4[C@H]3CC[C@]12C -27.8%
O=C(Nc1cccc(F)c1)N1CCC2(CC1)CCN(C(=O)c1ccncc1)CC2 23.2%
CNc1ncnc2ccc(-c3ccc4c(c3)OCO4)cc12 9.04%
COc1ccc(CN2CCCC(n3cc(C(=O)N4CCCCC4)nn3)C2)c(OC)c1C (stereo not drawn) 4.78%
CC(NC(=O)C1CCOCC1)c1nnc2n1CCN(Cc1ccc3ccccc3c1)CC2 (stereo not drawn) 13.4%
CCC1(C2CCN(Cc3c(C)[nH]c4ccccc34)CC2)NC(=O)N(Cc2ccc3c(c2)OCO3)C1=O (stereo not drawn) -9.73%
CCC(c1ccc(O)cc1)C(CC)c1ccc(O)cc1 (stereo not drawn) -2.15%
NC1(c2ccc(-c3nc4ccn5c(=O)[nH]nc5c4cc3-c3ccccc3)cc2)CCC1 -17.8%
COc1cc(OC)c2c(=O)c(OC)c(-c3ccc(OC)c(OC)c3)oc2c1 19.1%
CN1C2CC(OC(=O)C(CO)c3ccccc3)C[C@@H]1[C@H]1OC21 (stereo partly drawn) 10.2%
COc1ccccc1CNc1ncncc1-c1ccccc1OC -9.04%
O=C(NCc1nnc2n1CCN(Cc1ccnc3ccccc13)CC2)c1cccc(F)c1 17.5%
COc1cccc(-c2ccc3ncnc(N4CCN(C)CC4)c3c2)c1 11.3%
COc1cc(=O)n2c(c1C(=O)NC(C)c1ccco1)CCN(C(=O)c1cn3ccc(C)cc3n1)CC2 (stereo not drawn) 3.82%
CCNc1ncc2nc(-c3ccc(OC)cc3)c(=O)n(C)c2n1 -15.7%
O=c1c(CCc2ccccc2)nc2cnc(N3CCOCC3)nc2n1C1CC1 14.2%
CC(C)NC(=O)N1CCCC2(CCN(C(=O)c3ccco3)CC2)C1 18.4%
CC(=O)NNC(=O)N1Cc2ccccc2Oc2ccc(Cl)cc21
COc1ccccc1C1CN(Cc2cccc(C)n2)Cc2ccccc2O1 (stereo not drawn) -10.8%
CC(=O)NCCNC(=O)c1cnn(-c2nccc(-c3cc(C)sc3C)n2)c1C 6.55%
CNC[C@H](O)c1cccc(O)c1
Cc1c(C(=O)NCCc2ccccn2)cnn1-c1nccc(-c2cccs2)n1 17.3%
N=C(N)SCCc1cnc[nH]1
c1csc(CNc2ccnc(-c3ccoc3)n2)c1 0.924%
C[C@]12CCC(=O)C=C1CC[C@H]1[C@@H]3CC[C@](O)(C(=O)CO)[C@@]3(C)C[C@H](O)[C@@]12F
CSc1nc(N)c2ncn([C@H]3O[C@H](COP(=O)(O)OP(=O)(O)O)[C@@H](O)[C@@H]3O)c2n1 1.41%
CN1C(=O)CC(C)(c2ccccc2)C1=O (stereo not drawn) -3.75%
Cc1c(C(=O)NCC(C)C)sc2ncnc(NCC3CCCO3)c12 (stereo not drawn) 7.47%
CN(C)c1ccc(C=O)cc1Cl 21.5%
CO[C@H]1[C@H](NC(=O)c2ccncc2)c2ccccc2C12CCN(C(=O)c1ccoc1)CC2 18%
CCC(=O)NS(=O)(=O)c1ccc(-c2c(-c3ccccc3)noc2C)cc1 9.39%
CC(O)(COc1ccccc1)c1ccc2c(c1)CN(Cc1cccnc1)CCO2 (stereo not drawn) 23.7%
CCCCCCN(CCCCCC)C(=O)Cc1c(-c2ccc(F)cc2)[nH]c2ccccc12
CCN(CC)CCNC(=O)c1ccc(NC(C)=O)cc1
Cc1noc(C)c1C(=O)N1CCC2(CCCN(Cc3nccs3)C2)CC1 8.9%
N[C@@H](Cc1cnc[nH]1)C(=O)O
CN(C)C(=O)c1ccc(-c2nc(Nc3ccc(F)cc3)c3ccccc3n2)cc1 15.5%
COCCNc1nc(-c2c(C)noc2C)nc2ccccc12 -7.36%
COc1cccc(-c2cc3c(c(OC)c2)OCCN(Cc2ccccc2O)C3)n1 4.45%
NNc1nnc(Cc2ccncc2)c2ccccc12 18.8%
CC[C@H]1CN2CCc3cc(OC)c(OC)cc3[C@@H]2C[C@@H]1C[C@H]1NCCc2cc(OC)c(OC)cc21 -6.16% [at 75.8 µM]
COc1cccc(-c2nc3cc(SC)ccc3cc2CN(C(=O)c2sccc2C)C2CC2)c1 -2.79%
FC(F)(F)c1cc(CN2CCCC3(CCNCC3)C2)cc(C(F)(F)F)c1 4.68%
Cc1ccc(-c2ccnc(-n3ncc(C(=O)NC[C@@H]4CCCN5CCCC[C@H]45)c3C3CC3)n2)o1 10.9%
COc1cccc(-c2nc(NCc3cccnc3)c3ccccc3n2)c1 -5.85%
CCc1cc(C(=O)NCCN2Cc3ccccc3OC(c3ccsc3)C2)n(C)n1 (stereo not drawn) -2.9%
CC(C)(CO)[C@@H](O)C(=O)NCCCO
COc1ccc(NC(=O)N2CC[C@@]3(CCCN(C(C)=O)C3)C2)cc1 27.2%
O=C(c1cc(C(F)(F)F)cc(C(F)(F)F)c1)N1CCC[C@@]2(CCN(c3ccccc3)C2)C1 -6.53%
C=C(C)C1CC[C@]2(CO)CC[C@@]3(C)[C@H](CCC4[C@@]5(C)CCC(O)C(C)(C)C5CC[C@@]43C)C12 (stereo partly drawn) -0.0849%
CCOC(=O)[C@H](CCc1ccccc1)N[C@@H](C)C(=O)N1[C@H](C(=O)O)C[C@H]2CCCC[C@@H]21
CCNc1ncc2nc(-c3cccs3)c(=O)n(C[C@H]3CCCO3)c2n1 24.3%
COc1ccc(C(=O)N(O)c2ccccc2)cc1 17.3%
COc1cccc(Cn2c(=O)c(-c3cc(F)cc(F)c3)nc3cnc(N4CCOCC4)nc32)c1 -1.3%
O=C(O)C1CCC[C@@H]2[C@@H]3CC(CN12)[C@@H]1CCCCN1C3 (stereo partly drawn) 0.445%
COc1cccc(-c2nc(NCc3ccccc3OC)c3ccccc3n2)c1 -11.3%
O=C([C@@H]1C[C@@H](Sc2nc3ccccc3[nH]2)CN1CC1CCCCC1)N1CCOCC1 9.13%
COc1ccc(NC(=O)N2CC[C@@]3(CCCN(S(C)(=O)=O)C3)C2)cc1 10.8%
CCCCC[C@H](O)/C=C/[C@H]1C=CC(=O)[C@@H]1C/C=C\CCCC(=O)O 19.9% [at 15.3 µM]
Cc1ccc(S(=O)(=O)NC(=O)NC2CCCCCCC2)cc1 6.08%
O=C1CCCCN1CCC(=O)N1CCOc2ccc(C(O)C3CCCCC3)cc2C1 (stereo not drawn) 3.64%
COC(=O)[C@H]1[C@H]2C[C@@H]3c4[nH]c5cc(OC)ccc5c4CCN3C[C@H]2C[C@@H](OC(=O)c2cc(OC)c(OC)c(OC)c2)[C@@H]1OC
COc1cc2c(cc1OC)-c1cc3ccc(OC)c(OC)c3c[n+]1CC2 2.1%
COc1cccc(-c2ccc3ncnc(NC4CC4)c3c2)c1 -16.8%
COc1ccccc1N1CCN(c2nc(CNC(=O)c3sc(C)nc3C)nc3ccccc23)CC1 0.951%
CC(C)C[C@H](NC(=O)[C@@H](O)[C@H](N)Cc1ccccc1)C(=O)O
Cc1cc(C(=O)N2CCOc3ccc(CN4CCC(Oc5cccnc5)CC4)cc3C2)c(C)o1 12.1%
O=C(O)CN(CCOCCOCCN(CC(=O)O)CC(=O)O)CC(=O)O
COc1cc([C@@H]2c3cc4c(cc3[C@H](O)[C@H]3COC(=O)[C@H]23)OCO4)cc(OC)c1OC
O=P(O)(O)C(O)(Cc1cnc2ccccn12)P(=O)(O)O 39.9%
CN(C)CCCSc1ccccc1NC(=O)/C=C/c1ccccc1 3.38%
COc1ccc(Oc2ncc3nc(-c4ccccc4)c(=O)n(CCC#N)c3n2)cc1 17.6%
NC(C(=O)O)c1cccc(O)c1 (stereo not drawn) 11.5%
COc1cccc(C(=O)N(Cc2cc3cc4c(cc3nc2N(C)C)OCO4)CC2CCCO2)c1 (stereo not drawn) 0.294%
N[C@H](C(=O)O)[C@H](O)C(=O)O
O=S1(=O)CCOCCCN1Cc1cccc(Cl)c1 -27.4%
CN=C(NC#N)NCCSCc1nc[nH]c1C
O=C(NCCN1Cc2ccccc2OC(c2ccsc2)C1)c1cncs1 (stereo not drawn) 8.94%
COC(=O)[C@@H]1C[C@@H](NC(=O)c2ccc(C(F)(F)F)cc2)CN1Cc1cccc(O)c1 -6.4%
N=C(N)n1cccn1 16%
NCCO 10.9% [at 320 µM]
O=C(c1ccco1)N1CCC2(CCCN(Cc3ccccc3)C2)CC1 17.4%
COc1cccc(C2(CC(=O)N3CCCOc4c(cccc4OC)C3)CC(=O)N(C)C2=O)c1 (stereo not drawn) 6.75%
Cc1ccc2c(CC(=O)N3CCOc4ccc(CN5C[C@@H](C)O[C@@H](C)C5)cc4C3)cc(=O)oc2c1 -1.79%
CC(C)C[C@@H](CO)N(Cc1ccccc1)S(=O)(=O)N(Cc1ccccc1)[C@@H](CO)CC(C)C -25.4%
CCOC(=O)Nc1ccc2c(c1)N(C(=O)CCN1CCOCC1)c1ccccc1S2 -3.84% [at 75.8 µM]
CC(NC(=O)C1CCOCC1)c1nnc2n1CCN(Cc1cc3c(cc1Cl)OCO3)CC2 (stereo not drawn) 0.753%
COCCn1c(=O)c(C)nc2cnc(OC)nc21 15.5%
O=c1c(-c2ccc(O)cc2)coc2cc(O)cc(O)c12
